Whole data set: some 33,000 sequences, median “E-score (-0.5 to 0.5)” near -0.012, cut for the highest 2% near 0.29. The list shows a part of the results.
The sequences below were run against T1, Ybr033w (UniProt P38073) (assay: PBM E-score (8-mer binding enrichment) (E-score (-0.5 to 0.5)); higher = stronger / more preferred TF binding; most listed sequences are background and not binding sites). Settings: protein concentration: 200 nM; construct: GST-full length.
T1 sequence: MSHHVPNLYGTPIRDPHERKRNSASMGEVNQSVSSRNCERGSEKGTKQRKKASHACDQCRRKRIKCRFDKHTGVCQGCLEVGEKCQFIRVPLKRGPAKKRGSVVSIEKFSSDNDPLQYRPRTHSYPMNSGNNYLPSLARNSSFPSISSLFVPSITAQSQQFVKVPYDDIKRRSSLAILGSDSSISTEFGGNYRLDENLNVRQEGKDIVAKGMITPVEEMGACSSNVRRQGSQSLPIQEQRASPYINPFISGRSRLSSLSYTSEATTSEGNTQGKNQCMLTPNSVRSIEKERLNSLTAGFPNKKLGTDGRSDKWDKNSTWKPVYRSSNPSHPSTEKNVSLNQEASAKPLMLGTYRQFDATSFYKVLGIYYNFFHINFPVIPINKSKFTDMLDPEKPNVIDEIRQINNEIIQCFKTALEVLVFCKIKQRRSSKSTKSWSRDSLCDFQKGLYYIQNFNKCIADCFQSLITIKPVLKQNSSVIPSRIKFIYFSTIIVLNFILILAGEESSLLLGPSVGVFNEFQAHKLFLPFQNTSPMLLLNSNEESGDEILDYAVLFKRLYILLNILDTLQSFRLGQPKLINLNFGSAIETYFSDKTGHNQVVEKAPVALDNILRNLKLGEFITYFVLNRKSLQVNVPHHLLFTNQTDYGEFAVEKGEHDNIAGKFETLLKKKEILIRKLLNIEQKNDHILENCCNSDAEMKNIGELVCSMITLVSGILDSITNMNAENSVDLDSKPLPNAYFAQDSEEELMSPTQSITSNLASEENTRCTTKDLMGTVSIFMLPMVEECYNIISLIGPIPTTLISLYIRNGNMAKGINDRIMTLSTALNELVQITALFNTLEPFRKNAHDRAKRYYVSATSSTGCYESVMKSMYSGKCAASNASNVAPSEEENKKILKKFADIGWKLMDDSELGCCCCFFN
Protocol: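 Universal 'all 10-mer' protein binding microarrays (Agilent AMADID 015681) probed with GST-tagged S. cerevisiae TFs (full-length or DBD) made by in vitro transcription/translation (PURExpress), about 100-200 nM. Bound TF was detected with fluorescent anti-GST. Each ungapped 8-mer (which stands for itself and its reverse complement) is scored by the PBM enrichment score (E-score), a modified Wilcoxon-Mann-Whitney statistic from -0.5 to +0.5, computed with the Universal PBM Analysis Suite. Scale: above 0.35 generally sequence-specific binding.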

In order of rising “PBM E-score” value:
1. CCCCCCCA  -0.408
2. CCCGACAC  -0.406
3. CCAGCCAG  -0.359
4. AGTCTGCG  -0.321
5. CCCCGCGG  -0.295
6. ACCTGGGG  -0.294
7. GAACGGGC  -0.282
8. CATGGTCC  -0.282
9. ACCCTGGG  -0.272
10. CAGAGAGC  -0.269
11. AGCATCCC  -0.261
12. CCTCCTCG  -0.252
13. CCATCCCA  -0.249
14. GTAGCCAC  -0.247
15. AGAGTCCC  -0.244
16. ACGCTAGC  -0.242
17. GCCGCCCC  -0.239
18. AACGGGCC  -0.236
19. GACCGCGA  -0.231
20. ATGGGTCA  -0.229
21. AGCTCCAG  -0.227
22. GCACCGCA  -0.226
23. CCGGTAGA  -0.224
24. GACTCGAC  -0.223
25. CTGCTGCC  -0.219
26. AGGGATCC  -0.215
27. CAGGTACC  -0.211
28. GAAGCGTC  -0.208
29. CAAGCACC  -0.205
30. GGTTCGAC  -0.203
31. CATGCGGC  -0.2
32. TGTCGACA  -0.2
33. AGGACGCA  -0.195
34. CACATGGG  -0.192
35. ACGTGAGT  -0.186
36. ATCTCCCC  -0.185
37. CCAGAGGC  -0.183
38. AAAGAGTC  -0.181
39. ACCCAGTA  -0.18
40. ACCACTGC  -0.18
41. CCTCCCGC  -0.175
42. GTTGGGGA  -0.17
43. GAATGTCA  -0.166
44. CATCCTGC  -0.163
45. ACTACGCA  -0.163
46. AAGAGCAG  -0.163
47. CAACGTCC  -0.157
48. CCACTCAC  -0.157
49. CCATCGGC  -0.154
50. CAACCAGG  -0.151
51. CACCGAGG  -0.15
52. AGCCCGAA  -0.145
53. ACCGCCAC  -0.142
54. ATTGTCGG  -0.141
55. ACTGCAGC  -0.136
56. CTATGCAC  -0.134
57. GCTTTTGA  -0.134
58. GATGCGCC  -0.131
59. CCGGTGTC  -0.13
60. CGCACTTC  -0.128
61. AAGCGCGG  -0.121
62. CATCCCCA  -0.12
63. CCCTTAGA  -0.117
64. CAACCATC  -0.117
65. AACTGCGC  -0.116
66. GACTTCAA  -0.116
67. AACCGTGG  -0.115
68. GCAAGCCC  -0.113
69. ATGTGCAC  -0.113
70. ATGTCGCG  -0.111
71. CCGTGACG  -0.101
72. CGAGAACG  -0.101
73. CACGTGAC  -0.101
74. CTAGAGCC  -0.0992
75. GCGAGACC  -0.0977
76. TCGCTCCA  -0.0972
77. ATGACCTC  -0.0966
78. ATGGGAGC  -0.0911
79. CGACGCCC  -0.0903
80. GCCGGTTA  -0.0903
81. AACCTTTC  -0.0863
82. CATCATGG  -0.083
83. CCGCGCGC  -0.0806
84. GGTCGCTA  -0.0803
85. CTTCAGAC  -0.0755
86. GACACACC  -0.0728
87. CCAAGCGA  -0.0712
88. ATACTGCG  -0.0707
89. GGACTGGA  -0.0697
90. AGTGCATA  -0.0691
91. AGTGCGCC  -0.066
92. ACTGGTGA  -0.0598
93. GAGTAGGA  -0.0596
94. CGTTCTCA  -0.0566
95. CATGTACA  -0.0456
96. TACCTTCA  -0.0427
97. ACTCAGCG  -0.0413
98. TCTCCGCA  -0.0407
99. AGGTGAAG  -0.0382
100. AGACCGAT  -0.0377
101. ACAGGACC  -0.0354
102. ACTTGGTG  -0.0338
103. CATCAGCC  -0.0333
104. ATCTCTTA  -0.0332
105. ACCTCCTG  -0.0317
106. ACGTCTCG  -0.0293
107. CCGTTTAC  -0.026
108. CTGCATTA  -0.0228
109. CCAGACCA  -0.02
110. AGAGAACT  -0.0198
111. GTGGAGTA  -0.0194
112. CAACTAGA  -0.0185
113. CTCTTCAC  -0.0171
114. CTCGCATC  -0.0163
115. GGTAGACA  -0.0144
116. GGTTTATA  -0.0134
117. TATGGGAA  -0.0118
118. CAAGTCGA  -0.0109
119. GATCGTCA  -0.00934
120. GCGTACAA  -0.00822
121. ACAGCGTG  -0.00758
122. GATGATGA  -0.00448
123. CCTCGTTA  -0.00406
124. CTATTTGC  -0.00375
125. AATCGCTC  -0.0025
126. AAGAGAGT  -0.00066
127. CAAGATAG  0.00072
128. CACGGCTC  0.00122
129. ATCGGCAA  0.00152
130. CACTCTCC  0.00157
131. CAACTGGA  0.00332
132. AGACGCCA  0.00347
133. TAGCCATA  0.00786
134. GCGATTAC  0.00833
135. GCGTGAGA  0.00863
136. ATCTACGA  0.0113
137. GGGCAAGA  0.013
138. CAAGTTGG  0.0144
139. CCGCGATA  0.0153
140. GCACGAGA  0.0172
141. CTCACACA  0.0175
142. AAGCAGCT  0.0186
143. AACCAGCA  0.0219
144. AGGGGAAA  0.0237
145. GCGGCTTA  0.0298
146. ACGAACGG  0.0298
147. GCACAACA  0.0301
148. GCTGACCA  0.0331
149. AGGCTATA  0.0337
150. GCGATCCA  0.0348
151. ATCCCATA  0.0403
152. TGAGCCAA  0.0416
153. GGTATCAA  0.0433
154. AACGCGGG  0.048
155. AGTGGGTA  0.0537
156. AAGATTTG  0.054
157. AAACTCGG  0.0555
158. ACTCGGAT  0.0587
159. AGCATGAA  0.0623
160. CGCACGAA  0.0656
161. TGACACAA  0.0666
162. AAGCTATG  0.0673
163. AATGGTCT  0.0675
164. AGTCACAA  0.0701
165. AAGTGTCT  0.0707
166. AATGTGTC  0.0716
167. AATTGGCG  0.0731
168. GTATGAGA  0.0734
169. GATGCATA  0.0744
170. CTCCAAAA  0.0828
171. ACAGATTC  0.088
172. ATGAGGAA  0.0885
173. ACTATGCG  0.0912
174. GATCAAGA  0.0926
175. CAAGCGAG  0.0936
176. CACGCAGA  0.0953
177. AGCACGAG  0.0967
178. GATTAGAA  0.0985
179. AATAGAGA  0.0991
180. CATGATCA  0.106
181. CGGAAAAG  0.107
182. CCACAACC  0.11
183. ACTGGGAA  0.111
184. AAGATATC  0.117
185. CCGCTTAA  0.118
186. AAGGAATT  0.122
187. CCTTAATA  0.129
188. GGTACAGA  0.132
189. GCATAGAA  0.132
190. CTTACCTA  0.143
191. AAGATTGT  0.143
192. ATTTACAG  0.149
193. GAAGTATC  0.152
194. CATTTTAA  0.16
195. GCTAGAAA  0.164
196. AATGAAAC  0.169
197. GTACATAA  0.171
198. AGAATTAC  0.181
199. TAAGAGTA  0.187
200. GTCAAATA  0.188
201. ATAGCAAA  0.19
202. AAATTACA  0.198
203. AAGAATTG  0.2
204. ACTACAAC  0.206
205. CAATTAGA  0.206
206. AAGTTATG  0.206
207. AGATATTA  0.215
208. ATTACTCC  0.23
209. AATAATCA  0.234
210. CTATGTTA  0.24
211. GAAGAACC  0.248
212. ACTTGTTC  0.25
213. AATGAATT  0.272
214. AAAAACGA  0.275
215. TCGATTAA  0.288
216. ATTTTTGC  0.308
217. CATTAATA  0.321
218. ACAAATTA  0.328
219. CTTATATA  0.334
